Assay results from PubChem BioAssay (NCATS).
The other results are listed elsewhere or left out. Further columns of the screen follow, without active or inactive calls. Most of these compounds were active or inconclusive in the main read-out, so they are no random draw. Words in brackets tell the shape of the fitted curve; partial curves, single points and poor fits give uncertain potencies.

What follows are compounds tested against Histamine N-methyltransferase (Homo sapiens) (UniProt P50135) (assay: Confirmatory Screen for Target Class Profiling of Small Molecule Inhibitors of Methyltransferases (AID 1745852;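 further: inhibitor potency for blocking SAH production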)). Conditions: MTase-Glo luminescence, SAH detection, recombinant enzyme; measured here: HNMT inhibition potency.
Chain of UniProt P50135 (P50135 whole entry, looked up): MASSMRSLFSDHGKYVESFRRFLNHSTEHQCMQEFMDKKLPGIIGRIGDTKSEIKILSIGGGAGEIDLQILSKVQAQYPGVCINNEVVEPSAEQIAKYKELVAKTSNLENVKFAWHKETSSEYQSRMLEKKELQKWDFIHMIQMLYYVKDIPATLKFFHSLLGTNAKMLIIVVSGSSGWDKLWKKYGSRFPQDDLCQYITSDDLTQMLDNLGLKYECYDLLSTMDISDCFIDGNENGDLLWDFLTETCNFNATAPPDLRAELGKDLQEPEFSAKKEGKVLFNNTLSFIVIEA
Tags describe the fitted curve by direction and shape.

SMILES	IC50
CCN(CC)CCNC(=O)CCc1nnc2n(Cc3ccc(C)cc3)c(=O)c3ccccc3n12	17.1 µM [falling, partial curve]
COc1ccc(N2CCN(C(=O)c3cc(NC(C)=O)cc4nc(C)ccc34)CC2)cc1	24.1 µM [falling, partial curve]
CCOC(=O)CCN(C(=O)c1ccc2c(c1)nc(CNc1ccc(C(=N)N)cc1)n2C)c1ccccn1	1.71 µM [falling, full curve]
CCCN1CCn2c3c(c4cc(OC)ccc42)CCN=C31	19.2 µM [falling, partial curve]
Cc1nc2c3ccccc3n3c(CCCC(=O)NCCCN(C)Cc4ccccc4)nnc3n2n1	10.8 µM [falling, partial curve]
Cc1ccc(Cn2c(=O)c3ccccc3n3c(CCC(=O)NCCN4CCCC4)nnc23)cc1	6.81 µM [falling, full curve]
CCN1C(=O)c2ccccc2C1Nc1ccc(OCCN2CCCCC2)cc1 (stereo not given)	9.61 µM [falling, partial curve]
Cn1c(CNc2ccc(C(=N)N)cc2)nc2cc(C(=O)N(CCC(=O)O)c3ccccn3)ccc21	21.5 µM [falling, partial curve]
O=C(CCCc1nnc2n3nc(-c4ccccc4)nc3c3ccccc3n12)NCCN1CCCC1	4.82 µM [falling, full curve]
COc1cc2c(NC3CCN(C4CCCCC4)CC3)nc(N3CCCN(C(C)C)CC3)nc2cc1OCCCN1CCCCC1	19.3 µM [falling, partial curve]
